The results in this text go back to PubChem BioAssay AID488969 (Vanderbilt High Throughput Screening Facility, 2010).

Over roughly 110,000 compounds, “z-score” has its median near -0.1; the highest 2% begin near 2. The list shows a part of the results. Calls of active or inactive are those of the source.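 The calls were made as follows: active = z-score in the third read window above 3 or below -3; inactive = the rest.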

The assay has as its target Metabotropic glutamate receptor 8 (Rattus norvegicus) (UniProt P70579). Kind of assay: rat mGluR8 modulators via GIRK flux, primary screen, cell-based, thallium flux, HTS (AID 488969). Conditions: HEK293 rat mGluR8, GIRK (G protein-gated inwardly rectifying potassium channel) thallium flux, FluoZin2; at 10 µM; stronger effect = higher value; submaximal glutamate (EC20) added with thallium.
Chain of UniProt P70579 (P70579 whole entry, looked up): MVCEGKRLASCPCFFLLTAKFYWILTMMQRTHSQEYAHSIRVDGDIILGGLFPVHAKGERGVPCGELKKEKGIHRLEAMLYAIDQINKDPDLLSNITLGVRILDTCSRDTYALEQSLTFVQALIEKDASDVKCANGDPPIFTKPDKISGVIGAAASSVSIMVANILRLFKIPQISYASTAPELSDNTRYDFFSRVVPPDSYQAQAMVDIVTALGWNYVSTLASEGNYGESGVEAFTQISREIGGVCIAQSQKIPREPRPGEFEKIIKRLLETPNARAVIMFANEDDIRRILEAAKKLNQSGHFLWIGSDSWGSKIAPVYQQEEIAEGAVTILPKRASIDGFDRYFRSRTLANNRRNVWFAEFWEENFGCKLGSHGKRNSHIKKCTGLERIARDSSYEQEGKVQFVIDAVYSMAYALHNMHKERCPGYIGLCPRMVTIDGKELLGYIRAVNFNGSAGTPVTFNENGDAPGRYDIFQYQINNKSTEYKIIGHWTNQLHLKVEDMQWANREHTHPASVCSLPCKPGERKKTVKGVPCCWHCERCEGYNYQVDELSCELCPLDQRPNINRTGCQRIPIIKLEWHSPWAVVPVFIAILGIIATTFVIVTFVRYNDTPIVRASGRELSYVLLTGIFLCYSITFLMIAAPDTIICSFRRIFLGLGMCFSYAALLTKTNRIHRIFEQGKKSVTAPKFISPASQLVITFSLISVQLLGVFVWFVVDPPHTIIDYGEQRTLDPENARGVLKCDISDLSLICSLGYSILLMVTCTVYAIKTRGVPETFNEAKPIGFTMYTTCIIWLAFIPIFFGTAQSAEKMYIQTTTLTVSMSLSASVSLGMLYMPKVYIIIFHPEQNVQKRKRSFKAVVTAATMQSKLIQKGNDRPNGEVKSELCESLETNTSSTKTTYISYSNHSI
As for `Cc1nc2ccccc2n1/N=C/c1ccc([N+](=O)[O-])o1`, the z-score was -0.175.
`CC(=O)N1CCc2ccc(S(=O)(=O)N3CC(C)OC(C)C3)cc21` (stereo not given) showed a z-score of 0.441.
Consider `CN(C)c1ccc(C(=S)NCc2ccco2)cc1`, for which the z-score was 0.336.
As for `O=C(NNS(=O)(=O)c1cccc(Cl)c1Cl)c1cccc(S(=O)(=O)N2CCOCC2)c1`, the z-score is -0.174.
For `Cc1ccc(NC(=O)CSc2nnc(C(F)(F)F)n2C)cc1[N+](=O)[O-]` the value was 0.0206; for `NS(=O)(=O)c1ccc(NS(=O)(=O)/C=C/c2ccccc2)cc1`, -0.425; for `CCn1cc(CN(C)C(=O)/C=C/c2ccc([N+](=O)[O-])cc2)c(C)n1`, -0.0931.
For `CC(=O)N1N=C(c2ccc(Cl)cc2)OC1c1ccc(C(C)C)cc1` (stereo not given) the value was -0.945.
Under `COCCn1nnnc1CN1CCC(C)CC1` stands 0.321; under `COCCNC(=O)C(=O)NCCN1CCOCC1`, -0.127; under `COc1ccc(-c2cc(C(F)F)n3ncc(C(=O)N4CCN(C)CC4)c3n2)cc1`, -0.201.
In turn, `O=C(C[n+]1ccsc1)c1ccccc1` returned a z-score of -0.136.
Molecule `Cc1ccc(CN=Cc2[nH]c3ccc(Br)c(Cl)c3c2O)cc1` gave a z-score of -0.163.
Under `CCCCn1c(SCC(=O)Nc2ccc3c(c2)OCO3)nc2c1c(=O)n(C)c(=O)n2C` stands 0.0796.
For `O=C(CCS(=O)(=O)Cc1ccccc1)NCc1ccco1` the value was -0.123.
For `Cc1cc(C)c(OC2(c3ccccc3)OC(=O)c3ccccc32)c(C)c1` (stereo not given) the value was -0.25; for `COCCNC(=O)CN(C(=O)CCC(=O)Nc1cc(C)on1)c1ccc(C)cc1C`, 1.08; for `Cc1ccc(C(=O)O/N=C/c2ccc3c(c2)OCO3)cc1`, -0.102.
`CCOC(=O)n1ccc(C(=O)Nc2ccccc2F)n1` showed a z-score of -0.0236.
For `CC1CCN(c2[nH]c(=S)c(C#N)c3c2CCCC3)CC1` the value was -0.0937.
Under `COC(=O)c1cc(NC(=S)NCc2ccc(Cl)cc2)cc(C(=O)OC)c1` stands 0.1.
Under `O=S(=O)(NCc1ccc(Cl)cc1)c1ccc(Cl)nc1` stands 0.057.
Molecule `CC(=O)c1c(N2CCOCC2)nc(=S)n(Cc2ccccc2)c1C` came in with a z-score of 0.00352.
With `Cc1ccccc1Cn1nnc2c1C(=O)c1ccccc1C2=O`, the z-score stood at 0.259.
For `CC(C)CNC(=O)CSc1nc(-c2cccs2)cc(C(F)(F)F)n1` the value was -1.24; for `CCCn1c(SCC(=O)NC23CC4CC(CC(C4)C2)C3)n[nH]c1=O`, -0.0293.
Molecule `CC1(C)Cc2c(sc(NC(=O)c3ccc(Br)o3)c2C#N)CO1` came in with a z-score of -0.949.
In turn, `Cc1cc(C)n2c(SCC(=O)Nc3c(C)n(C)n(-c4ccccc4)c3=O)nnc2n1` returned a z-score of -0.189.
For `CCOC(=O)C(CSCC(=O)c1ccc(Br)cc1)NC(=O)OC(C)(C)C` (stereo not given) the value was -0.243.
`CC1(C)Cc2c(cnn2-c2ccccc2)C(=O)/C1=N\NC(=O)c1ccncc1` yielded a z-score of -0.198.
Molecule `CC(Oc1ccc(Br)cc1)C(=O)Nn1c(=S)[nH]c2ncccc2c1=O` (stereo not given) registered a z-score of -0.579.
Under `CCc1cc(-c2n[nH]c(=S)n2C(C)c2ccccc2)cs1` (stereo not given) stands 2.55; under `COc1ccc(CNC(=O)c2ccc(CN3CCOCC3)cc2)cc1`, -0.000463; under `COc1ccc(C(=O)C(CN2CCCC2)c2ccccc2)cc1` (stereo not given), 0.349.
For `O=C(CSc1cc(Cl)ccc1Cl)NCC1CCCO1` (stereo not given) the value was -0.0958; for `COc1ccc(-c2csc(N(CCCN3CCOCC3)C(=O)c3ccco3)n2)cc1`, -0.222; for `COC(=O)CSc1nc2ccc(NC(=O)CSc3nnnn3Cc3ccccc3)cc2s1`, -0.296.
For `Cc1cccc(CCNC(=O)C2CCC(=O)N2Cc2ccc(F)cc2)c1` (stereo not given) the value was -0.122; for `COc1cc(NC(=O)c2cccs2)c(C(=O)OCC(=O)NCc2ccccc2)cc1OC`, 0.16.
The molecule `Cc1ccc(-c2csc(/C(C#N)=C/Nc3ccccc3SC(F)(F)F)n2)cc1` returned a z-score of -0.319.
`N#Cc1c(Nc2ccccc2)sc(C(=O)c2ccc(F)cc2)c1N`: the z-score was -0.289.
For `O=C(COc1ccc([N+](=O)[O-])cc1)N(Cc1ccccc1)Cc1ccccc1` the value was -0.0952; for `CCCC(C)NC(=O)c1ccc(F)cc1` (stereo not given), 0.0358.
For the molecule `Cc1ccc(C(=O)N/C(=C/c2ccccc2)C(=O)NC(Cc2ccccc2)C(=O)O)cc1` (stereo not given), the z-score is -0.249.
`O=C(Nc1nnc(SCc2cccc3ccccc23)s1)C1COc2ccccc2O1` (stereo not given): the z-score was -0.0973.
Under `COc1ccccc1OCCC(=O)OCC(=O)NCc1ccccc1` stands 0.33; under `COc1ccc(OC)c(C2C(C(C)=O)=C(O)C(=O)N2CCc2ccc(OC)c(OC)c2)c1` (stereo not given), -0.577.
Under `C=CCn1c(=O)[nH]c2cc(C(=O)N3CCN(c4cccc(Cl)c4)CC3)ccc2c1=O` stands -0.302; under `Cc1cc(C(F)(F)F)c(C#N)c(=O)[nH]1`, -0.0803.
Under `COc1ccc(CNCc2cc3c(C(C)(C)C)nn(-c4ccccc4)c3[nH]c2=O)cc1` stands -1.08; under `O=C(Nc1ncn[nH]1)c1c(Cl)ccc(Cl)c1Cl`, -0.166.
As to `O=C(Nc1nnc(CCS(=O)(=O)c2ccc3ccccc3c2)s1)c1ccc([N+](=O)[O-])cc1`, the z-score was -0.0917.
For `COC(=O)c1sccc1NC(=S)N1CCN(c2ccccc2F)CC1` the value was -0.119.
For `NC(=O)c1cnn(Cc2ccc(Cl)cc2)c1N` the value was 0.39; for `CCN(CC)C(=O)CN(c1ccc(Cl)cc1)S(=O)(=O)c1ccccc1`, -0.473.
For `O=C(COC(=O)C1CC(=O)N(c2ccccc2)C1)c1ccccc1` (stereo not given) the value was -0.302.
`Cc1ccc(S(=O)(=O)Nc2ccc3c4c(cccc24)CC3)c(C)c1` had a z-score of 0.186.
Under `Cn1c(=O)cc(OCCCC(=O)Nc2ccccn2)c2ccccc21` stands -0.243; under `CC1=C(C)/C(=N\OS(=O)(=O)c2ccccc2)C=CC1=O`, 0.632.
Under `O=C(CCCn1c(=O)[nH]c2cc(Cl)ccc2c1=O)NC1CCCCCC1` stands -0.173; under `CN(c1ccccc1)S(=O)(=O)c1cccc(NC(=O)CSc2nncs2)c1`, -0.209; under `COc1cc(OC)cc(C(=O)N[C@H](C(=O)N2CCc3ccccc32)C(C)C)c1`, -0.177.
Under `CCSc1nc(C2CC2)cc(-c2ccco2)c1C#N` stands -0.0872.
For the molecule `COc1cc(NC(=S)NC(=O)c2c(OC)cccc2OC)ccc1NC(=O)c1cccs1`, the z-score was -0.249.
For `Cn1c(CNc2ccccc2O)nc2ccccc21`, the z-score is -0.0926.
Under `CCOC(=O)c1c(C)c(C(=O)N2CCc3ccccc3C2)c(C)n1CC` stands -1.91; under `Cc1cccc(C)c1-n1c(C)cc(/C=N/NC(N)=S)c1C`, -0.613.
On to `CCCS(=O)(=O)n1nc(-c2ccc(C)cc2)cc1N`, for which the z-score came to 0.45.
Under `Cc1cccc(-n2c(N)c(-c3nc4ccccc4n3C)c3nc4ccccc4nc32)c1` stands 0.68; under `Cc1cc(Cl)ccc1OCCCC(=O)N1CCCc2ccccc21`, -0.177; under `CC(C)Cn1c(=O)c2c(c3ccccc31)OC(C)C(=O)N2` (stereo not given), -0.811.
Under `O=C1C2ON(c3ccccc3)C(c3ccncc3)C2C(=O)N1c1ccc(Br)cc1` (stereo not given) stands 0.171; under `CCN1CCCC1CNC(=O)c1ccc2c(=O)n(CCOC)c(=O)[nH]c2c1` (stereo not given), 0.53.
In turn, `Cc1ccc(CNC(=O)c2ccc(NC(=O)CCS(=O)(=O)c3cccs3)cc2)cc1` showed a z-score of -0.474.
Under `CCS(=O)(=O)CCSc1nc2c(cc1C#N)CCCC2` stands -0.298; under `Cc1cccc(NC2=NCC(=O)N2CCc2ccccc2)c1`, -0.423; under `O=C(NCc1ccc2c(c1)OCO2)C1CC(=O)N(c2ccc(O)cc2)C1` (stereo not given), 0.604.
As to `COc1ccc(NC(=O)C(c2ccccn2)N(C(C)=O)c2ccc(C)cc2)cc1` (stereo not given), the z-score was 0.0764.
Under `COCCN(Cc1cc2cccc(C)c2[nH]c1=O)C(=O)c1ccccc1` stands 0.694.
Under `CCC(=O)Nc1sc2c(c1C(N)=O)CCC2` stands 0.815; under `CN1C(=O)N(c2ccccc2)C(Nc2nncs2)C1(C)C` (stereo not given), -1.59.
`Cc1cccc(-c2cc3c(nn2)-c2ccccc2C3=O)c1` came in with a z-score of -0.268.
For `CCOc1ccc(S(=O)(=O)Nc2cccc(N(C)S(C)(=O)=O)c2)cc1` the value was -0.0173; for `CC1CC(=O)Nc2ccc([N+](=O)[O-])cc2N1C` (stereo not given), -0.291; for `CCOC(=O)c1sc(NC(=O)CSc2nc3ccccc3o2)c(C(=O)OCC)c1C`, -0.175.
Turning to `Cc1c(C(=O)N2CCOCC2)[nH]c2c1C(=O)CC(c1ccc(Cl)cc1)C2` (stereo not given), the z-score is -0.803.
`O=c1c(Cl)c(N/N=C/c2ccc(Cl)cc2)cnn1-c1ccccc1` showed a z-score of -0.166.
For `COCCNC(=O)CSc1nnc2c(Cl)cc(Cl)cn12` the value was 0.0414; for `COc1cccc(-n2nnnc2SCC(=O)NC2CCCC2)c1`, -0.27; for `O=C(COC(=O)c1ccccc1C(=O)c1ccc(Cl)cc1)NCc1ccccc1`, -0.106.
Under `CN(Cc1ccccc1)C(=O)NC1CCCCC1` stands -0.0271; under `COc1ccc(NC(=O)CCC(=O)c2ccc(-c3ccccc3)cc2)cc1`, -0.0832.
For `Cc1c(C(=O)N(C)C)sc(NC(=O)c2cccc([N+](=O)[O-])c2)c1C#N` the value was -0.178; for `CC1=NOC(=O)/C1=C/c1ccc(N(C)C)cc1`, -0.24.
The molecule `CN(C)C(=O)c1cn(-c2ccccc2)c(=O)c2ccccc12` displayed a z-score of -0.0584.
The molecule `COc1ccc(C)cc1NC(=O)CN1CCN(CC(=O)Nc2ccccc2F)CC1` showed a z-score of 0.0527.
On to `COCCn1c(-c2ccccc2)nc(=S)c2c1CC(C)(C)OC2`, for which the z-score is -0.0646.
Under `Cc1cccc(N2C(=O)CC(SC(=Nc3ccccc3)Nc3ccccc3)C2=O)c1` (stereo not given) stands -0.184; under `Cc1ccc(-c2nc(N/N=C/c3cccc([N+](=O)[O-])c3)c3ccccc3n2)cc1`, -0.0526.
Consider `CCc1ccc(C(=O)CC2(O)C(=O)N(CN3CCOCC3)c3ccccc32)cc1` (stereo not given), for which the z-score is -0.735.
For the molecule `OCCCCNCc1ccc(OCc2ccc(Cl)cc2)cc1`, the z-score came out at 0.823.
Under `CC(C)(O)C#Cc1ccc(C(=O)NCc2ccccc2)s1` stands -0.37; under `CCOC(=O)Cc1csc(NC(=S)NC(=O)c2ccccc2)n1`, active: 10.6.
Under `COc1ccc(CCNC(=O)c2ccc(CS(=O)(=O)c3ccc(C)cc3)o2)cc1OC` stands 0.126; under `CCOC(=O)c1cc(-c2ccccc2)sc1N`, -0.122; under `CCCOC(=S)N/C(=N\S(=O)(=O)c1ccccc1)c1ccccc1`, 1.24.
Under `CCC(=O)NC(=S)Nc1ccc(NC(=O)c2cccc([N+](=O)[O-])c2C)cc1` stands -0.473; under `CCn1cc(C(=O)OCC(=O)c2cc(C)n(-c3cccc(C(F)(F)F)c3)c2C)c(=O)c2ccc(C)nc21`, -2.43.
`COc1cc(OC)cc(-c2cc3nc(C)c(CCC(=O)O)c(C)n3n2)c1` showed a z-score of -0.456.
Under `CCN(CC)C(=O)Nc1ccccc1C` stands -0.262.
